# Laboratory results taken from the supplement of paper PMC8728848.
# This is one part of the list.
# B1: Jacalin (Artocarpus integrifolia) (protein)
# chain: MAYSSLLSLSVLALLFSISSADTRKWFLANGINQNPIGIIEAAVGVSEDLLNLNGMEAKNDEQSGISQTVIVGPWGAKVSTSSNGKAFDDGAFTGIREINLSYNKETAIGDFQVVYDLNGSPYVGQNHKSFITGFTPVKISLDFPSEYIMEVSGYTGNVSGYVVVRSLTFKTNKKTYGPYGVTSGTPFNLPIENGLIVGFKGSIGYWLDYFSMYLSL
# Tests used:
# Experiment in all cases: glycan array binding signal (z-score within array); higher = stronger binding
# Settings in all cases: glycan notation: IUPAC condensed, linker removed
# [1] = target: Fuc(a1-2)[GalNAc(a1-4)]Gal(b1-4)GlcNAc
# Summary of the method: (§1)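 Glycan array data were curated from 3228 arrays in the Consortium for Functional Glycomics database and kept only where the protein sequence was available. Glycan names were converted to IUPAC-condensed notation, and columns mapping to the same glycan were averaged. The binding signal is a within-array Z-score, averaged across arrays of the same protein sequence at different concentrations or buffers and across linkers. Negative Z-scores can be read as non-binding.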
# [2] = target: Fuc(a1-2)[GalNAc(b1-3)]Gal
# Summary of the method: as §1
# Fuc(a1-3)GlcNAc = target: Fuc(a1-3)GlcNAc
# Summary of the method: as §1
# [3] = target: Fuc(a1-3)[Gal(b1-4)]Glc6S
# Summary of the method: as §1
# [4] = target: Fuc(a1-3)[Gal(b1-4)]GlcNAc
# Summary of the method: as §1
# [5] = target: Fuc(a1-3)[Gal(b1-4)]GlcNAc(b1-2)Man
# Summary of the method: as §1
# [6] = target: Fuc(a1-3)[Gal(b1-4)]GlcNAc(b1-2)Man(a1-3)[Fuc(a1-3)[Gal(b1-4)]GlcNAc(b1-2)Man(a1-6)]Man(b1-4)GlcNAc(b1-4)GlcNAc
# Summary of the method: as §1
# [7] = target: Fuc(a1-3)[Gal(b1-4)]GlcNAc(b1-2)Man(a1-3)[Fuc(a1-3)[Gal(b1-4)]GlcNAc(b1-2)Man(a1-6)]Man(b1-4)GlcNAc(b1-4)[Fuc(a1-6)]GlcNAc
# Summary of the method: as §1
# [8] = target: Fuc(a1-3)[Gal(b1-4)]GlcNAc(b1-3)Gal(b1-3)[Fuc(a1-4)]GlcNAc
# Summary of the method: as §1
# [9] = target: Fuc(a1-3)[Gal(b1-4)]GlcNAc(b1-3)Gal(b1-4)[Fuc(a1-3)]GlcNAc
# Summary of the method: as §1
# [10] = target: Fuc(a1-3)[Gal(b1-4)]GlcNAc(b1-3)Gal(b1-4)[Fuc(a1-3)]GlcNAc(b1-3)Gal(b1-4)[Fuc(a1-3)]GlcNAc
# Summary of the method: as §1
# [11] = target: Fuc(a1-3)[Gal(b1-4)]GlcNAc(b1-3)GalNAc
# Summary of the method: as §1
# [12] = target: Fuc(a1-3)[Gal(b1-4)]GlcNAc(b1-4)Gal(b1-4)[Fuc(a1-3)]GlcNAc
# Summary of the method: as §1
# [13] = target: Fuc(a1-3)[Gal(b1-4)]GlcNAc(b1-4)Gal(b1-4)[Fuc(a1-3)]GlcNAc(b1-4)Gal(b1-4)[Fuc(a1-3)]GlcNAc
# Summary of the method: as §1
# [14] = target: Fuc(a1-3)[Gal(b1-4)]GlcNAc(b1-6)GalNAc
# Summary of the method: as §1
# [15] = target: Fuc(a1-3)[Gal(b1-4)]GlcNAc(b1-6)[Gal(b1-3)GlcNAc(b1-3)]Gal(b1-4)Glc
# Summary of the method: as §1
# [16] = target: Fuc(a1-3)[Gal(b1-4)]GlcNAc6S
# Summary of the method: as §1
# [17] = target: Fuc(a1-3)[Gal3S(b1-4)]Glc
# Summary of the method: as §1
# [18] = target: Fuc(a1-3)[Gal3S(b1-4)]GlcNAc
# Summary of the method: as §1
# [19] = target: Fuc(a1-3)[Gal3S(b1-4)]GlcNAc6S
# Summary of the method: as §1
# [20] = target: Fuc(a1-3)[GalNAc(b1-4)]GlcNAc
# Summary of the method: as §1
# [21] = target: Fuc(a1-3)[GalNAc(b1-4)]GlcNAc6S
# Summary of the method: as §1
# Fuc(a1-4)GlcNAc = target: Fuc(a1-4)GlcNAc
# Summary of the method: as §1
# Fuc(b1-3)GlcNAc = target: Fuc(b1-3)GlcNAc
# Summary of the method: as §1
# Gal(a1-2)Gal = target: Gal(a1-2)Gal
# Summary of the method: as §1
# Gal(a1-3)Gal = target: Gal(a1-3)Gal
# Summary of the method: as §1
# Gal(a1-3)Gal(b1-3)GlcNAc = target: Gal(a1-3)Gal(b1-3)GlcNAc
# Summary of the method: as §1
# [22] = target: Gal(a1-3)Gal(b1-3)GlcNAc(b1-2)Man
# Summary of the method: as §1
# [23] = target: Gal(a1-3)Gal(b1-3)GlcNAc(b1-2)Man(a1-3)[Gal(a1-3)Gal(b1-3)GlcNAc(b1-2)Man(a1-6)]Man(b1-4)GlcNAc(b1-4)GlcNAc
# Summary of the method: as §1
# [24] = target: Gal(a1-3)Gal(b1-3)GlcNAc(b1-3)GalNAc
# Summary of the method: as §1
# [25] = target: Gal(a1-3)Gal(b1-3)GlcNAc(b1-6)GalNAc
# Summary of the method: as §1
# [26] = target: Gal(a1-3)Gal(b1-3)[Fuc(a1-4)]GlcNAc(b1-2)Man(a1-3)[Gal(a1-3)Gal(b1-3)[Fuc(a1-4)]GlcNAc(b1-2)Man(a1-6)]Man(b1-4)GlcNAc(b1-4)GlcNAc
# Summary of the method: as §1
# Gal(a1-3)Gal(b1-4)Glc = target: Gal(a1-3)Gal(b1-4)Glc
# Summary of the method: as §1
# Gal(a1-3)Gal(b1-4)GlcNAc = target: Gal(a1-3)Gal(b1-4)GlcNAc
# Summary of the method: as §1
# [27] = target: Gal(a1-3)Gal(b1-4)GlcNAc(b1-2)Man
# Summary of the method: as §1
# [28] = target: Gal(a1-3)Gal(b1-4)GlcNAc(b1-2)Man(a1-3)[Gal(a1-3)Gal(b1-4)GlcNAc(b1-2)Man(a1-6)]Man(b1-4)GlcNAc(b1-4)GlcNAc
# Summary of the method: as §1
# [29] = target: Gal(a1-3)Gal(b1-4)GlcNAc(b1-3)GalNAc
# Summary of the method: as §1
# [30] = target: Gal(a1-3)Gal(b1-4)GlcNAc(b1-6)GalNAc
# Summary of the method: as §1
# [31] = target: Gal(a1-3)Gal(b1-4)[Fuc(a1-3)]GlcNAc
# Summary of the method: as §1
# [32] = target: Gal(a1-3)Gal(b1-4)[Fuc(a1-3)]GlcNAc(b1-2)Man(a1-3)[Gal(a1-3)Gal(b1-4)[Fuc(a1-3)]GlcNAc(b1-2)Man(a1-6)]Man(b1-4)GlcNAc(b1-4)GlcNAc
# Summary of the method: as §1
# Gal(a1-3)GalNAc = target: Gal(a1-3)GalNAc
# Summary of the method: as §1
# [33] = target: Gal(a1-3)[Gal(a1-4)]Gal(b1-4)GlcNAc
# Summary of the method: as §1
# [34] = target: Gal(a1-4)Gal(b1-3)GlcNAc(b1-2)Man(a1-3)[Gal(a1-4)Gal(b1-3)GlcNAc(b1-2)Man(a1-6)]Man(b1-4)GlcNAc(b1-4)GlcNAc
# Summary of the method: as §1
# Gal(a1-4)Gal(b1-4)Glc = target: Gal(a1-4)Gal(b1-4)Glc
# Summary of the method: as §1
# Gal(a1-4)Gal(b1-4)GlcNAc = target: Gal(a1-4)Gal(b1-4)GlcNAc
# Summary of the method: as §1
binder,measurement,setting,value
B1,glycan array binding signal (z-score),[1],-0.264
same,glycan array binding signal (z-score),[2],0.341
same,glycan array binding signal (z-score),Fuc(a1-3)GlcNAc,-0.279
same,glycan array binding signal (z-score),[3],-0.23
same,glycan array binding signal (z-score),[4],-0.263
same,glycan array binding signal (z-score),[5],-0.228
same,glycan array binding signal (z-score),[6],-0.259
same,glycan array binding signal (z-score),[7],-0.249
same,glycan array binding signal (z-score),[8],-0.245
same,glycan array binding signal (z-score),[9],-0.216
same,glycan array binding signal (z-score),[10],-0.272
same,glycan array binding signal (z-score),[11],0.527
same,glycan array binding signal (z-score),[12],-0.329
same,glycan array binding signal (z-score),[13],-0.325
same,glycan array binding signal (z-score),[14],-0.24
same,glycan array binding signal (z-score),[15],-0.267
same,glycan array binding signal (z-score),[16],-0.249
same,glycan array binding signal (z-score),[17],-0.263
same,glycan array binding signal (z-score),[18],-0.306
same,glycan array binding signal (z-score),[19],-0.272
same,glycan array binding signal (z-score),[20],-0.183
same,glycan array binding signal (z-score),[21],-0.204
same,glycan array binding signal (z-score),Fuc(a1-4)GlcNAc,-0.266
same,glycan array binding signal (z-score),Fuc(b1-3)GlcNAc,-0.269
same,glycan array binding signal (z-score),Gal(a1-2)Gal,-0.265
same,glycan array binding signal (z-score),Gal(a1-3)Gal,0.185
same,glycan array binding signal (z-score),Gal(a1-3)Gal(b1-3)GlcNAc,-0.243
same,glycan array binding signal (z-score),[22],-0.256
same,glycan array binding signal (z-score),[23],-0.19
same,glycan array binding signal (z-score),[24],0.712
same,glycan array binding signal (z-score),[25],-0.259
same,glycan array binding signal (z-score),[26],-0.167
same,glycan array binding signal (z-score),Gal(a1-3)Gal(b1-4)Glc,-0.258
same,glycan array binding signal (z-score),Gal(a1-3)Gal(b1-4)GlcNAc,-0.275
same,glycan array binding signal (z-score),[27],-0.257
same,glycan array binding signal (z-score),[28],-0.215
same,glycan array binding signal (z-score),[29],0.893
same,glycan array binding signal (z-score),[30],-0.274
same,glycan array binding signal (z-score),[31],-0.268
same,glycan array binding signal (z-score),[32],-0.275
same,glycan array binding signal (z-score),Gal(a1-3)GalNAc,0.322
same,glycan array binding signal (z-score),[33],-0.247
same,glycan array binding signal (z-score),[34],-0.229
same,glycan array binding signal (z-score),Gal(a1-4)Gal(b1-4)Glc,-0.231
same,glycan array binding signal (z-score),Gal(a1-4)Gal(b1-4)GlcNAc,-0.218
